The results in this text go back to article PMC12136788.

The list shows a part of the results.

To fix the notation:
B1: chr4:130320001:130320002:+_ENSMUSG00000028580_ENSMUST00000105991|mus_mus|FALSE|FALSE (ssRNA)
RNA: GGGAGUUCUACAGUCCGACGAUCCGCAGCCUGGAGGAUUUCAUUGAAGACAAGCUGGCGCUCAGCUGCUGUGGCACGCUCUAGUUUCAGCUGAAUGAAUCUAGAGCCAUGCUGGUCUUGAGAAAAUUCCAUUAUAUGCCCAGCCAACAGAGGAUUGAGCAUCA
B2: chr1:23645023:23645024:-_ENSG00000125944_ENST00000302271|hu_mus|FALSE|FALSE (ssRNA)
RNA: GGGAGUUCUACAGUCCGACGAUCCUUUGCCAUGACUUCUGGAUCCGGCUCCUCCACGGGGUCAGCCCACUCUACUGUAACCACAUUUCCCCACACUUUGACUUUUCCACUCAUCAGCCGGCGUCUGGCUUGUGCUGCUGACUUCAACAGAGGAUUGAGCAUCA
B3: 21906080_21940665_881_3pUTR_ENSG00000078403_ENST00000307729|human|control|control (ssRNA)
RNA: GGGAGUUCUACAGUCCGACGAUCAUGCAGGUGAUGGUUCUGGCUGCUUCUUGUGUUUCUGUUUGUGUUUGUCCUUCUCUUUAUAUUUUUUUUUCUCUUUCUCAUGAUGUUUAUCCUGAGAGUGAGAGGAAGAAUCACUUAAACCAACAGAGGAUUGAGCAUCA
B4: chr11:66627819:66627820:+_ENSG00000173621_ENST00000309602|hu_hu|FALSE|FALSE (ssRNA)
RNA: GGGAGUUCUACAGUCCGACGAUCGGUGGCUGUGAGCACCUGUUGGAGGGGCCUGCCCUUACCCUGGUCUGGAGGCCAGAACCGAGGAAAGGGCUCCCUGCCCCUCCAAGUACACAGGGGAGCCUGAGGUACUGAGAAUAAAAACAACAGAGGAUUGAGCAUCA
B5: 71633814_71636354_1509_CDS_ENSMUSG00000006273_ENSMUST00000006435|mouse|control|control (ssRNA)
RNA: GGGAGUUCUACAGUCCGACGAUCAUAAACAGUUCGGUUUUCAUAGGGACCCUGAGUAAUGAAGUUCUUCUCAAACUUCUGCAGAAAUUCCAGGUAAAGGAGAUCAUCUGAGGUCAGGGCUUCCUCUCCCACCACGGCUUUCAUCAACAGAGGAUUGAGCAUCA
B6: chr11:75578393:75578394:+_ENSMUSG00000020849_ENSMUST00000067664|mus_hu|FALSE|FALSE (ssRNA)
RNA: GGGAGUUCUACAGUCCGACGAUCGACACAGUAAUGCUGAAAAAGCCUCUAUGUAGUCCUGUUAGUGUCUUAAAGAACCUAAAAGCUGGGACCAGUAAAAUCCACAGAAAUUCACUCUUGCCUUUAAGAACUUUUGAAAACUGUCAACAGAGGAUUGAGCAUCA
B7: chr4:175223256:175223257:+_ENSG00000164118_ENST00000503780|hu_hu|FALSE|FALSE (ssRNA)
RNA: GGGAGUUCUACAGUCCGACGAUCAAAUUGAUCACGAAGAAGCUUAUAGACAGCAUCUAUAAAGCGCAAGUCAUUUUUUGCUAUGAGCUCUACAUUGGAUUCCAUUAUAAGUUCUGUUACAUAAGGUGAGUAUGAGGUAAAAGACAACAGAGGAUUGAGCAUCA
B8: 10830402_10830522_195_5pUTR_ENSG00000110321_ENST00000339995|human|control|control (ssRNA)
RNA: GGGAGUUCUACAGUCCGACGAUCAGAGGAGUCGCUGCUGCAGCCGCCACUCGGUACCCGCUGCCACCUCCAUAGAGCUCCGACUCACUGCUGGCGCUAAGGCGUGUCUGAAGCCGAACUUAUCACUCUUGGGGCAGCCGAACCCAACAGAGGAUUGAGCAUCA
B9: chr11:77336104:77336105:-_ENSG00000074201_ENST00000525064|hu_mus|hu_hu_hu_mus_False|18_98 (ssRNA)
RNA: GGGAGUUCUACAGUCCGACGAUCCUCACACAUUGCUGUGAACAUUGCCUCCAAUGCUGACUUAUCACUGGGCACAAAUCGAAAUUCAGAAAUGGGUUCAACAUCAUCAUUGUCUUCUUCCUCUUCUUCAGAGAGAGGUUCUUUCAACAGAGGAUUGAGCAUCA
B10: 181729411_181733545_326_5pUTR_ENSMUSG00000026491_ENSMUST00000027768|mouse|control|control (ssRNA)
RNA: GGGAGUUCUACAGUCCGACGAUCUUCUGGGAAAUGCAGGAGAUCACUAGUCACUUGAGCUGUCAAGUCUUGCAUACUGCCACUGAGCCCGCGGGCCAGGCCGCCAAGGGCCCCGGCGUCGCUGCUUCCGUGCGGUCCGUCACACAACAGAGGAUUGAGCAUCA
B11: chr10:1038518:1038519:+_ENSG00000107937_ENST00000545048|hu_hu|hu_hu_hu_mus_False|1_48 (ssRNA)
RNA: GGGAGUUCUACAGUCCGACGAUCCAGUCUGUCAUGGUAAUUCUGUUGAGUAAAUUUGACUUUUCUCAUAUAAAAAUGUCGAAUCCGAUGUAUUUGGUAAUGUUUAUGAAUAACCGUUGGAGUCUUUCGUUGAGUCUUCGACAACAACAGAGGAUUGAGCAUCA
B12: 179884977_179887919_1089_3pUTR_ENSMUSG00000039050_ENSMUST00000040668|mouse|control|control (ssRNA)
RNA: GGGAGUUCUACAGUCCGACGAUCAAAGAGCUUCUUCCUGUUUUUGUCUUGAAUGUACCCUUCUACUCUGUGAAGUUCCUUCCCAAACAAUCCACAAGGCUUGAAGUGAAGUAUACACUUAUCUCCAGUUCUGUGAUUUACAAUCAACAGAGGAUUGAGCAUCA
B13: chr4:99338562:99338563:+_ENSG00000138698_ENST00000453712|hu_hu|motif|central (ssRNA)
RNA: GGGAGUUCUACAGUCCGACGAUCUCCAGCAAGCUGUAGCUGGUGGUUAUUUGAUGGGAUCCAAGAGAGUACCCUUUGAAAUACACGGCCUUUUCCUCCUUCAAAUAACUUCUGCAUGGAUUCAUCUCCAAGAAGUAAUAAAACCAACAGAGGAUUGAGCAUCA
B14: chr7:149068622:149068623:-_ENSMUSG00000025139_ENSMUST00000001950|mus_hu|mus_mus_mus_hu_False|68_88 (ssRNA)
RNA: GGGAGUUCUACAGUCCGACGAUCGUGAGGCCUCUGAGUGUGGCUUGUGCUCUGCAGUGGGUUAGAGCUGCUGGUAACACGGAACAUACCAUCUAGAACGUUCCAGUCCCGCCUGACACCUUCAUUCCCAAUGGAGAAGAAAUCCAACAGAGGAUUGAGCAUCA
B15: 29589776_29605605_832_3pUTR_ENSMUSG00000038084_ENSMUST00000160597|mouse|control|control (ssRNA)
RNA: GGGAGUUCUACAGUCCGACGAUCUACUUUAACUGAGUAUGCAGAAGUUCUUCUUGAAGUUGGUCAAUCUUUUCUUUGUCUGACACCUUCCUGUAAUGCUUGUCACUUUCAGAUCCAUGAUCUGUUGCUCGAAAUGCUGUUUCUCAACAGAGGAUUGAGCAUCA
B16: chr16:47005550:47005551:-_ENSG00000069345_ENST00000563158|hu_hu|FALSE|FALSE (ssRNA)
RNA: GGGAGUUCUACAGUCCGACGAUCUAAAGAAAAGGUAAAAAUAAAAAUAAUUGCAUUUUCAAGUAGAAGAGUGGGGAGAAGCUACAGGAAUCCAGAAUCCAUUUAAUUUUUGUCUCCUGCAUUUGGAUUCUUAUCAGGAUGAUACAACAGAGGAUUGAGCAUCA
B17: 205779317_205779437_1207_CDS_ENSG00000133065_ENST00000367137|human|control|control (ssRNA)
RNA: GGGAGUUCUACAGUCCGACGAUCGCCACGGUCUGUGCUGACGUCGUCACUUUCGUUGCUCUGGCUCCCGUUCUCCAGCAGGGCGUCCUCCUCCCGAACCCCCUUGGCGUUGGCCCGAGACUCAAUCACCACCUCUACCCCAGCCAACAGAGGAUUGAGCAUCA
B18: chr20:43533646:43533647:+_ENSG00000166913_ENST00000353703|hu_hu|FALSE|FALSE (ssRNA)
RNA: GGGAGUUCUACAGUCCGACGAUCGAAAUUUAGUGCCAGACCAAGACGAAUUGGGUGUGUAGGCUGCAUUUCUUUCUUACUAAUUUCAAAUGCUUCCUGGUAAGCCUGCUGGGAGUUCGACACAGUGGUUUGUUUGUUGUCUCCCAACAGAGGAUUGAGCAUCA
B19: chr2:216981417:216981418:+_ENSG00000079246_ENST00000392132|hu_hu|hu_hu_hu_mus_True|48_68 (ssRNA)
RNA: GGGAGUUCUACAGUCCGACGAUCCUGAUACUGGUCCUUGCCAGCAAGGGCAUUAUCAGUGCCAUCUGUACCAAACAGGACUAACGCAAUCUCAUCCUUGCUCUCCGAAAAUACCUGUCGUUGGACAAACAUAGUCAUCACUUUCAACAGAGGAUUGAGCAUCA
B20: chr16:21666878:21666879:+_ENSG00000197006_ENST00000396014|hu_mus|FALSE|FALSE (ssRNA)
RNA: GGGAGUUCUACAGUCCGACGAUCUUUAAAAACACUCCCUUACACACUACAAAGAAAGAAUUAGUAUUUUGGCUUUUUAAAUUCCUACAUGAUACUGAGAAUGACAGUCCCCAGAGGUCCCCCUCACAUCACUGGAUGCAUCUCCAACAGAGGAUUGAGCAUCA
B21: chr6:86475052:86475053:-_ENSMUSG00000051695_ENSMUST00000053015|mus_mus|FALSE|FALSE (ssRNA)
RNA: GGGAGUUCUACAGUCCGACGAUCCUCAUUGAUGUUGGCGCCUUGGCGCCCGAUUAUGCAGCCGAUUAAGUUAUUUGGAAUGGUGAGUUCAUGGGUGGUUUGAGUAGAUGCAUCCAAACUUGCCCAAUAGCCUUUCACCUCUGGCAACAGAGGAUUGAGCAUCA
B22: chr1:163112212:163112213:-_ENSG00000143248_ENST00000313961|hu_hu|hu_hu_hu_mus_False|38_38 (ssRNA)
RNA: GGGAGUUCUACAGUCCGACGAUCUUUUAUUAUCAGUAAGAGUGAGUUACAUACUAGGCAAAGUAUUGGAUACAAUAAUCAGGAAACAAACACUAUUUUUCUUGAAUUUAAAACUUUAUGAGCGAAGUGCUGGCACAGGACUUACAACAGAGGAUUGAGCAUCA

This test deals with T1, UNK ZnF1-3 (human, UniProt Q9C0B0 31-174).
T1 sequence: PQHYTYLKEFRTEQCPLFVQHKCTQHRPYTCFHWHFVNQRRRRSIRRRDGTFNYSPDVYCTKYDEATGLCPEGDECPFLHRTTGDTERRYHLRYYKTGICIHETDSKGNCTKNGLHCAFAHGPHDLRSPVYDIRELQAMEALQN
Nature of the test: nsRBNS (natural sequence RNA bind-n-seq); RBNS binding buffer (assumed for nsRBNS): 25 mM Tris pH 7.5, 150 mM KCl, 3 mM MgCl2, 0.01% Triton X-100, 500 ug/ml BSA, 20 U/ml SUPERase-In, 4 C; UNK is unkempt and MSI1 is Musashi-1; names of the RNAs are library labels; protein concentration not given here; high values mean tight binding.
On to B1, for which the binding signal is 1.28 enrichment R.

Regarding B2, the binding signal worked out at 0.673 enrichment R.

In turn, B3 registered a binding signal of 0.284 enrichment R.

For the molecule B4, the binding signal stood at 0.666 enrichment R.

Consider B5, for which the binding signal came out at 0.963 enrichment R.

Molecule B6 returned a binding signal of 1.44 enrichment R.

B7: the binding signal is 0.881 enrichment R.

Regarding B8, the binding signal was 0.233 enrichment R.

In turn, B9 returned a binding signal of 0.786 enrichment R.

Molecule B10 yielded a binding signal of 0.591 enrichment R.

On to B11, for which the binding signal turned out to be 0.644 enrichment R.

On to B12, for which the binding signal worked out at 0.735 enrichment R.

As to B13, the binding signal is 1.07 enrichment R.

With B14, the binding signal is 0.82 enrichment R.

For the molecule B15, the binding signal was 0.319 enrichment R.

In the case of B16, the binding signal came out at 1.41 enrichment R.

As to B17, the binding signal was 0.879 enrichment R.

B18 showed a binding signal of 0.754 enrichment R.

As for B19, the binding signal is 0.701 enrichment R.

On to B20, for which the binding signal is 1.25 enrichment R.

The molecule B21 had a binding signal of 0.361 enrichment R.

In turn, B22 gave a binding signal of 1.51 enrichment R.
